A word on the IC50: it is the concentration that gives 50% inhibition.

Some entries of the source have several records that differ or are many. They are shown here; other results are not. The source may hold further records. Values that stand side by side are repeated measurements (runs, samples, wells, individuals or studies). Additions like (4×) give the number of equal values in this list. Marks such as [2022-09] give the month of the run.

The subject of this assay is 349418-098-R-PDC complex spheroid growth. The experiment in a line: Anticancer human tumor 349418-098-R-PDC patient-derived lung adenocarcinoma cell line growth inhibition [AhR]. The following applies: for IC50: combination with AhR antagonists, compound alone; for viability, T/C: stronger effect = lower value. An excerpt:
Multicellular complex tumor spheroid response to aryl hydrocarbon receptor antagonists in combination with a variety of drugs and investigational agents in selected tumor cell lines
The current study was undertaken to assess response to aryl hydrocarbon receptor antagonists in combination with standard-of-care drugs and investigational agents in solid tumor complex spheroid models. Complex spheroids include a stromal component modeled by human endothelial cells (HUVEC) and fibroblasts modeled by human mesenchymal stem cells (MSCs). The concentration ranges selected for each drug and investigational agent were based upon clinically achievable concentrations if the clinical Cmax of the agent was known.
Compounds. The drugs and investigational agents: BAY 2416964 (NSC825713), GNF351 (NSC835774), CH-223191 (NSC835775), CPI-455 (NSC825282), aza-TdCyd (NSC777586), decitabine (NSC127716), belinostat (NSC758774), entinostat (NSC756642), pevonedistat (NSC761192), tazemetostat (NSC777109), talazoparib (NSC765396), olaparib (NSC753686), selinexor (NSC780203), nedisertib (M3814, NSC802822), bortezomib (NSC756655), venetoclax (NSC766270), doxorubicin (NSC123127), elimusertib (BAY189344, NSC800525), ceralasertib (AZD6738, NSC777638), TAK-243 (NSC785004), alisertib (NSC759677), etoposide (NSC141540), topotecan (NSC609699), eribulin (NSC707389), gemcitabine (NSC613327), carboplatin (NSC241240), cisplatin (NSC119875), and SN-38 (NSC673596) were obtained from the National Cancer Institute (NCI) Developmental Therapeutics Program Chemical Repository (32). The FDA-approved anticancer drug set is available from the Developmental Therapeutics Program at https://dtp.cancer.gov/organization/dscb/obtaining/available plates.htm. […] The stock solutions were prepared in dimethyl sulfoxide (DMSO, Sigma-Aldrich, St. Louis, MO, cat. D2650), except for the platinum compounds which were prepared in saline (Quality Biological, Gaithersburg, MD, cat. 114-055-101), at 800-fold the tested concentration and stored at -70 degrees C prior to their use. All drugs and investigational agents were tested over a range starting from a high concentration at or near the clinical Cmax and decreasing in half-log increments. If the clinical Cmax for an agent had not been determined, the highest concentration tested was 10 microM (Table 1).
Cell Culture. All cells were maintained in an incubator at 37 degrees C and 5% CO2 with 95% humidity. The PDC lines were cultured according to standard operating procedures established by the NCI PDMR (https://pdmr.cancer.gov). Briefly, all PDCs were thawed and cultured in Matrigel-coated flasks prepared with a working solution of 1X Ham's F-12 nutrient mix, without supplementation (Invitrogen, Waltham, MA, cat. 11765054), 100 U/mL penicillin-streptomycin (Invitrogen, cat. 15140122), and 2.5% Matrigel (Corning Inc., Corning, NY, cat. 354248) for the first three passages. All PDCs were cultured in complete DMEM/F-12 media containing advanced DMEM/F-12 (Invitrogen, cat. 12634028), 4.9% defined fetal bovine serum, heat inactivated (HyClone Laboratories Inc., Logan, UT, cat. SH30070.03HI), 389 ng/mL hydrocortisone (Sigma-Aldrich, cat. H4001), 9.7 ng/mL human EGF recombinant protein (Invitrogen, cat. PHG0313), 23.4 microg/mL adenine (Sigma-Aldrich, cat. A2786), 97.3 U/mL penicillin-streptomycin (Invitrogen, cat. 15140122), 1.9 mM L-glutamine (Invitrogen, cat. 25030081), and 9.7 microM Y-27632 dihydrochloride (Tocris Bioscience, Bristol, United Kingdom, cat. 1254). The PDCs were cultured in complete DMEM/F12 media without 10 microM Y-27632 dihydrochloride for at least two passages prior to the screen. The established cell lines NCI-H1341 and […] were cultured in DMEM/F-12, HEPES (Invitrogen, cat. 11330032), 5% defined fetal bovine serum (HyClone Laboratories Inc., cat. SH30070.03), ITS premix universal culture supplement [insulin (5 microg/mL), transferrin (5 microg/mL), and selenious acid (5 ng/mL)] […]
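Further: spheroids exposed to agents for seven days before luminescence viability read.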
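Wherever viability, T/C is given: spheroids also contain HUVEC endothelial cells and human MSC stroma.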

On to `Cc1cncc(-c2nc(NCCc3c[nH]c4ccccc34)c3ncn(C(C)C)c3n2)c1`, for which, under “run of 07/18/2022”, the IC50 is 1.55 µM, 1.82 µM, 1.66 µM and 1.92 µM, 1.84 µM, 1.78 µM, 3.86 µM, 1.79 µM, 1.81 µM, 1.65 µM, 1.87 µM, 1.9 µM, 1.99 µM, 1.94 µM, 1.75 µM, 831 nM, 2.83 µM, 1.73 µM [2022-07]. In addition, the viability, T/C (compound alone 1 µM) was 86.3, 80.9, 87.8, 80, 85.8, 86.9, 87, 87.9, 76.1, 89.4, 85, 85.2 (2×), 82.5, 76.5, 80.8, 72.5 (2×), 40.5, 91.3, 86.8% and the viability, T/C (compound alone 3.16 µM) is 22.3, 21.4, 19.8, 59.2, 13.9, 17, 14.6, 16.2, 16.8, 22.6, 26.3, 26.2, 22.5, 19.4, 19.5, 87, 13.5, 45.6, 25.1, 11.1%.

As to `CC(CO)NC(=O)c1cc(-c2ccc(Cl)cc2)nn(-c2cnn(C)c2)c1=O` (stereo not given), where the note is “run of 07/12/2022”, the IC50 is recorded as > 10 µM, 9.86 µM, 7.61 µM, 8.83 µM, 7.38 µM, 8.02 µM, 8.68 µM, 6.12 µM, 7.11 µM, 9.92 µM. In addition, the viability, T/C (compound alone 0.1 µM) was 103 (2×), 93.2, 80.1, 98.1, 113, 73.9, 95.6, 93.9, 124, 114, 81.3, 87.5, 76.5, 73.8, 77, 82.2, 100 (2×), 89.7%; the viability, T/C (compound alone 0.316 µM) was 102, 117, 88.6, 101 (2×), 90.5, 96.8, 87.9, 116, 115, 89.1, 83.3 (2×), 108, 91.1, 91.4, 100, 81.9, 105, 79.7, 84.3%; the viability, T/C (compound alone 1 µM) is recorded as 77.6, 98.1, 82.8, 81.5, 84.1, 83.9, 82.5, 82.6, 99.9, 112, 77.5, 83.2, 90.1, 79.2, 89.2, 88.9, 67.7, 91.1, 72.3, 72.8, 85.5%; the viability, T/C (compound alone 3.16 µM) is given as 60.9, 78.1, 92.3, 62, 66.1, 79.5, 77, 91.4, 86.6, 66.8, 63.5, 76.4, 73.7, 71, 67.6, 68.7, 66.9, 83.5, 71.5%; the viability, T/C (compound alone 10 µM) is 69.2, 50, 61.4, 51.3, 65.5, 41.2, 60.8, 76.6, 53.6, 62.2, 48.4, 58.9 (2×), 41.6, 52.7, 42.9, 52, 44.3, 36.8%.

As to `Cc1ccccc1N=Nc1ccc(NC(=O)c2ccnn2C)c(C)c1`, the IC50 (run of 07/26/2022) was > 10 µM, 8.89 µM, 7.12 µM, 9.34 µM. Besides, the viability, T/C was 101, 110, 72.3, 84.8, 98, 84, 109, 113, 87.8, 79.7, 91.4, 115, 85.6, 96.1, 88.9, 90.7, 116, 68, 84.4, 96% (compound alone 0.1 µM); 99.7, 76.9, 61.4, 84.6 (2×), 91.9, 73.6, 59.9, 97.2, 98.8, 102, 87.1, 86.2, 92.7, 82.9, 85.6, 110, 94.4, 87.7, 92% (compound alone 0.316 µM); 103, 111, 86.8, 102, 85.5, 78.4, 65.7, 75.2, 71.4, 85, 88, 86, 84.3, 93.2, 91.3, 92.3, 75.3, 89.7, 76.3, 104% (compound alone 1 µM); 82.6, 74.9, 65, 87, 104, 83.5, 83.6, 67.8, 66.4, 106, 63.5, 80, 85.7, 86.1, 95.9, 74.8, 78.8, 93, 71.3, 61.2% (compound alone 3.16 µM); 76.2, 63.7, 52.5, 63.3, 69.1, 46.6, 60.6, 50.4 (2×), 52, 51.2, 44.4, 60, 67.9, 47.5, 62.5, 68.7, 80.7, 54.9, 71.3% (compound alone 10 µM).

Values taken from PubChem BioAssay AID1918996 (Molecular Pharmacology Branch, DTP, NCI, 2023).
